# According to PubChem BioAssay (NCI):
# “And” between values parts separate entries of the source, which are not always exact repeats. Identical values can stand only once.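 A five-concentration, 48-hour dose response in 96-well plates underlies each endpoint, interpolated linearly between surrounding concentrations. GI50: concentration for 50% inhibition of growth. At the TGI there is no net growth.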
# System: NCI-H322M lung
# Assay: NCI-60 cell line screen, 48 h
SMILES,TGI,GI50
OCCN(CCO)c1cccc(N(CCO)CCO)c1,> 100 µM,–
Cn1c(-c2ccc[se]2)ccc1-c1ccc(CO)[se]1,> 100 µM,–
CCOC(=O)c1c2c(n(-c3ccc(OC)cc3)c1C)C(=O)C(=O)c1ccccc1-2,3.29 µM,–
CCOC(=O)c1cc2c(n1Cc1cc(OC)cc(OC)c1)-c1oncc1CCC2,> 100 µM,0.463 µM
O=C(/C=C/c1ccc(-c2ccccc2)cc1)NCc1ccc(C(=O)NCCc2c[nH]c3ccccc23)cc1,> 100 µM,–
ON(CCc1ccncc1)Cc1ccccc1,> 100 µM,–
O=C1CCC2CCc3cccc4oc1c2c34 (stereo unspecified),> 100 µM,–
CNC(=O)c1c(NC(=O)c2cccc(C(F)(F)F)c2)sc2c1CCC(=O)C2,18.1 µM,2.74 µM
O=C1c2ccccc2C(=O)c2c1ccc1c2N=C(c2ccc(F)cc2)CC(c2ccc(Cl)c(Cl)c2)N1 (stereo unspecified),66 µM,–
COC(=O)c1nc(-c2ccc3c(n2)C(=O)C(N)=C(OC)C3=O)c(N)c(-c2ccc(OC)c(OC)c2O)c1C,2.5 µM,–
COc1ccc(C(O)c2cc3c(N)c(C(=O)Nc4cccc(Cl)c4C)sc3nc2C)cc1 (stereo unspecified),1.81 µM,0.869 µM
N#Cc1c(N2CCCC2)ncn(Cc2ccccc2)c1=S,> 100 µM,–
CCN(CC)c1ccc(N=C2C=CC(=O)c3ncccc32)c(C)c1,30.4 µM,–
CC(C)COC(=O)N1N=NC2C3OC(CC3=O)C21 (stereo unspecified),> 100 µM,–
O=c1[nH]c(=O)n(COCc2ccccc2)c2ccc(Br)cc12,> 100 µM,–
CNS(=O)(=O)NN(C)S(=O)(=O)c1ccc(Cl)cc1,> 100 µM,–
COC(=O)/C=C\C(C#N)(C#N)N=Cc1ccc(C)s1,29.4 µM,–
Cc1cc(NS(=O)(=O)c2ccc(NC(=O)c3cccc4c(NNc5ccc(S(=O)(=O)N=C(N)N)cc5)c5ccccc5nc34)cc2)no1,> 100 µM,–
CCN(CC)CC(=O)/C=C/c1ccc(C)cc1,> 100 µM,–
Cn1c(=O)c(Oc2cccc(F)c2)cc2cnc(NC3CCOCC3)nc21,> 25 µM,> 25 µM
NC1CCCCC1N.O=C([O-])P(=O)([O-])[O-].[Na+].[Pt+4] (stereo unspecified),> 100 µM,> 100 µM
COc1cc2c(cc1OCCCOC1=C=C=C(c3ccc4c(c3)c3cc(-c5ccc(OCCCOc6cc7c(cc6OC)C(=O)N6CCC[C@H]6C=N7)cc5)ccc3n4S(=O)(=O)c3ccc(C)cc3)C=C1)N=C[C@@H]1CCCN1C2=O,15 µM,7.55 µM
CC(=O)NC1=C(C)C(=O)c2c(nc3n2CCC3O)C1=O (stereo unspecified),> 100 µM,–
CC(=O)OCc1cc(=O)n(C)c2c3c4c(cc12)c(C)cc(=O)n4CO3,13.4 µM,–

SMILES,TGI,GI50
CC(=N\O)/C(C)=N/O.CC(=N\O)/C(C)=N/O.CC(=N\O)/C(C)=N/O.CC(=N\O)/C(C)=N/O.[Cu].[Cu],32 µM,16.1 µM
Nc1ccc(-c2nc3cc(F)ccc3s2)cc1I,> 60.9 µM,–
c1cc(C[S+]2CCCC2)ccc1C[S+]1CCCC1,> 100 µM,–
NCCNCCCCCCNC(=O)c1cccc2cc3ccccc3nc12,10.3 µM,–
O=S1(=O)N(Cc2ccccc2)[C@@H](Cc2ccccc2)C2O[C@H]2[C@H](Cc2ccccc2)N1Cc1ccccc1 (stereo partly specified),> 7.5 µM,> 7.5 µM
O=c1[nH]c2cc3cccnc3c(Cl)c2nc1C(F)(F)F,> 100 µM,–
COc1ccccc1NC(=S)N/N=C(/C)c1ccccn1,> 87.8 µM,–
CC(NC(=O)OCc1ccccc1)NC(=O)C(CC(=O)OC(C)(C)C)NC(=O)OC(C)(C)C (stereo unspecified),> 100 µM,–
CCNC(=O)/C=C/CCC#Cc1ccc(-c2ccc(-c3cccs3)s2)s1,> 100 µM,–
CCOC(=O)C1=C(C)C(C(=O)OC)/C(=C/c2cccc3cccnc23)C1=O (stereo unspecified),> 10 µM,–
C=CCN(c1cc(OCc2ccccc2)c(NC(C)=O)cc1[N+](=O)[O-])S(C)(=O)=O,> 100 µM,–
COCN1CCN=c2c1c1c3c(c4ccccc4n23)CCC1,> 100 µM,–
CC(C)(C)OC(=O)NC(Cc1ccc(O)cn1)C(N)=O (stereo unspecified),> 100 µM,–
CCCCCCCCCCCCCC[P+](CCCCCC)(CCCCCC)CCCCCC,–,0.288 µM
CN(C)c1ccc(C(=O)c2ccc(N(C)C)c(N)c2)cc1N,> 95.2 µM,7.34 µM
COc1ccc(Oc2nc3ccc(C(F)(F)F)cc3nc2-c2ccccc2)cc1,> 100 µM,–
N#Cc1c2ccccc2c2n1-c1ccccc1OC(c1ccccc1)C2=O (stereo unspecified),> 100 µM,18.2 µM
CC1=C(C(=O)Nc2ccc3[nH]ncc3c2)C(c2ccc(F)cc2)NC(=O)N1 (stereo unspecified),> 25 µM,> 25 µM
NC1C2C(CC(=O)O)OCC=C3CN4CCC1(C(=O)C(=O)O)C4CC32 (stereo unspecified),> 100 µM,–
Cc1ccc(S(=O)(=O)NC(=O)NCCC(=O)O)cc1,> 100 µM,–
COc1ccc(/C=C2\CC3C4CC=C5C[C@@H](O)CC[C@]5(C)C4CC[C@]3(C)\C2=N\O)cc1OC (stereo partly specified),> 100 µM,–
CCc1ccc(-c2ccc(=O)n(-c3ccc(S(N)(=O)=O)cc3)n2)cc1,99.4 µM,> 37.8 µM
CN(C)CCOC(=O)c1ccc(N)cc1,> 100 µM,–
O=C(Cn1c(=O)c(-c2ccccc2)nc2ccccc21)c1cccnc1,> 100 µM,> 100 µM

SMILES,TGI,GI50
COC(=O)c1ccc(CCc2cc(O)ccc2O)cc1,> 100 µM,–
CC(C)[C@H]1NC(=O)[C@H]2N=C(O[C@@H]2C)[C@@H]2CCCN2C(=O)[C@H](Cc2ccccc2)NC(=O)[C@@H]2CSC(=N2)[C@@H](Cc2ccccc2)NC(=O)[C@@H]2CSC1=N2,> 100 µM,–
Cc1cn(CC2=NCCCN2)c(=O)[nH]c1=O,> 100 µM,–
Fc1ccc(C2CC(c3cccc(Nc4ccncc4)c3)=NN2c2cc(Cl)cc(Cl)c2)cc1 (stereo unspecified),3 µM,1.6 µM
CNc1nc(C)c(-c2nc(Nc3cccc(S(N)(=O)=O)c3)ncc2F)s1,13.9 µM,0.0262 µM
CC1=C(SCc2ccccc2)C(=O)c2ccccc2C1=O,> 100 µM,–
C1#Cc2ccccc2OCCOc2ccccc2C#Cc2ccccc2OCCOc2ccccc21,> 100 µM,–
CCCn1c(=O)c2ccccc2[n+]2c(-c3ccc([N+](=O)[O-])cc3)csc12,> 100 µM,–
CCOP(=O)(OCC)/C(=C\N1C(=O)CC(=O)NC1=S)C(=O)OC,> 100 µM,–
O=c1[nH]c(=O)n(COCc2ccccc2)c2ccc([N+](=O)[O-])cc12,> 100 µM,–
CC(=O)O[C@H]1CC[C@@]2(C)C(CC[C@]3(C)C2CC[C@]2(C)Oc4c(C)cc(O)cc4C[C@@H]23)C1(C)C (stereo partly specified),22.5 µM,–
N#Cc1cccc(C(=O)c2cnn(-c3ccc(F)cc3)c2N)c1,> 25 µM,> 25 µM
Nc1nc2c(c3ncccc13)C(c1ccc(Cl)c(Cl)c1)Cc1ncccc1-2 (stereo unspecified),21.4 µM,7.98 µM
COc1ccc(C2=CC(c3cc(OC)c(OC)c(OC)c3)NC(=O)N2)cc1OC (stereo unspecified),16 µM,4.19 µM
COc1c(OC)c(O)c2c(=O)c(OC)c(-c3ccc4c(c3)OCO4)oc2c1O,> 100 µM,–
CCCC(CC)c1c(O)c(O)c(C(CC)CCC)c(C(CC)CCC)c1C(CC)CCC (stereo unspecified),> 10 µM,–
C=C1C(=O)O[C@H]2[C@H]1CC/C(CNS(=O)(=O)c1ccc3ccccc3c1)=C\CC[C@@]1(C)O[C@@H]21,27.6 µM,13.9 µM
CC1CC[C@@]2(OC1)O[C@H]1C[C@H]3[C@@H]4CC[C@H]5C[C@@H](OC6OC(CO)C(OC7OC(CO)C(OC8OC(CO)C(O)C(OC9OC(C)C(OC%10OC(C)C(O)C(O)C%10O)C(O)C9O)C8OC8OCC(O)C(O)C8O)C(O)C7O)C(O)C6O)CC[C@]5(C)[C@H]4CC(=O)[C@]3(C)[C@H]1[C@@H]2C (stereo partly specified),36.1 µM,–
OCCCCC#Cc1ccccc1C#Cc1ccccc1F,49.2 µM,21.4 µM
O=Nc1c(-c2cccc([N+](=O)[O-])c2)nc2cnccn12,66.4 µM,–
O=C(CN1CCCCC1)c1ccc2c(c1)Sc1ccccc1O2,29 µM,–
COc1ccc(C[C@H](N)C(=O)N2C[C@H](CO)C[C@H](n3cnc4c(N(C)C)ncnc43)C2)cc1,> 100 µM,–
NS(=O)(=O)c1ccc(C2C3=C(CCCC3=O)OC3=C2C(=O)c2ccccc2C3=O)cc1 (stereo unspecified),3.5 µM,1.64 µM
CN(C)CCCNc1c2ccccc2nc2cccc([N+](=O)[O-])c12,0.0133 µM and 0.0485 µM,0.0225 µM

SMILES,TGI,GI50
CCOC(=O)CCc1c(C(=O)OCC)[nH]c(/C=C2\NC(=O)C(C)=C2CC)c1C,20.2 µM,–
COc1ccc(Nc2ccnc(NCCNc3ccnc4cc(Cl)ccc34)n2)cc1,10.8 µM,2.25 µM
CC1(C)[C@@H](Cn2cnc3c(=O)[nH]c(N)nc32)CC[C@@]1(C)CO,> 100 µM,–
CC(=O)NC1C(OCc2ccccc2)OC(CO)C(O)C1OCC(=O)NC(C)C(=O)NC(CCC(=O)NCCCCCNc1c2ccccc2nc2cccc([N+](=O)[O-])c12)C(N)=O (stereo unspecified),0.0104 µM,–
O=C(NNc1cn[nH]c(=O)c1Cl)/C(=C/c1ccc2c(c1)OCO2)NC(=O)c1ccccc1,> 100 µM,–
O=C1CSC2=NCC3(NN12)c1ccccc1-c1ccccc13,> 10 µM,–
COc1ccc2c(c1)nc1n2C(N)=Nc2ccccc2S1,> 100 µM,–
COc1ccc(-c2nc(-c3cc4ccccc4oc3=O)cs2)cc1,> 100 µM,–
COc1cc(N=Nc2ccccc2)cc(/C=N\[N-]C(N)=S)c1[O-].COc1cc(N=Nc2ccccc2)cc(/C=N\[N-]C(N)=S)c1[O-].[Fe+4],> 100 µM,51.8 µM
CC(=Nc1c2ccccc2nc2ccccc12)N(C)C,> 100 µM,–
O=c1[nH]c(-c2ccccc2)nc2ccc(Cl)cc12,> 100 µM,–
CC1CCC2(NC1)OC1CC3[C@@H]4CC=C5C=CCC[C@]5(C)C4CC[C@]3(C)C1C2C (stereo partly specified),52.2 µM,–
COc1cc(C(=O)/C=C/c2c(-c3ccc(F)cc3)nc3sc(C)cn23)cc(OC)c1OC,> 100 µM,8.65 µM
Cc1ccc(NC(=S)Nc2c(C)n(C)n(-c3ccccc3)c2=O)cc1,> 100 µM,–
Nc1ccccc1NC(=O)CCCCCCC(=O)Nc1ccc2c(c1)/C(=C/c1ccc[nH]1)C(=O)N2,> 100 µM,6.72 µM
CS(=O)(=O)N(CCC#N)c1ccc(/C=N/NC(=O)CC(=O)Nc2cccc(Cl)c2)cc1,> 100 µM,–
C=C1C(=O)O[C@H]2C/C(C)=C/CC/C(C)=C/CC[C@@](C)(O)[C@@H](I)C[C@@H]12,26.8 µM,–
N#CC(C#N)=Cc1c(O)ccc2ccccc12,31.2 µM,–
Cc1nccn1S(=O)(=O)c1ccc(Br)cc1Br,> 100 µM,–
C[C@]12CC/C(=N\N)C[C@@H]1CC[C@@H]1[C@@H]2CC[C@]2(C)/C(=N/N)CC[C@@H]12,> 100 µM,> 100 µM
Oc1ccc2c(c1)CC[N+]1=C2CCC2CCCC21 (stereo unspecified),> 100 µM,–
C[C@H](CC[C@@H](O)C(C)(C)O)[C@H]1CC[C@@]2(C)[C@@H]3CC=C4[C@@H](CC[C@H](O)C4(C)C)[C@]3(C)C(=O)C[C@]12C,> 50 µM,–
